# According to the supplement of paper PMC8728848:
# This is one part of the list.
# B1: DC-ASGPR S+GEE (Homo sapiens) (protein)
# chain: MTRTYENFQYLENKVKVQGFKNGPLPLQSLLQRLRSGPCHLLLSLGLGLLLLVIICVVGFQNSKFQRDLVTLRTDFSNFTSNTVAEIQALTSQGSSLEETIASLKAEVEGFKQERQAVHSEMLLRVQQLVQDLKKLTCQVATINNNGEEASTEGTCCPVNWVEHQDSCYWFSHSGMSWAEAEKYCQLKNAHLVVINSREEQNFVQKYLGSAYTWMGLSDPEGAWKWVDGTDYATGFQNWKPGQPDDWQGHGLGGGEDCAHFHPDGRWNDDVCQRPYHWVCEAGLGQTSQESH
# Assays:
# Assay in all cases: glycan array binding signal (z-score within array); higher = stronger binding
# Settings in all cases: glycan notation: IUPAC condensed, linker removed
# [1] = target: Gal(b1-3)GlcNAc(b1-6)GalNAc
# Procedure, shortened: (§1)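 Negative Z-scores can be read as non-binding. The Z-score is calculated within each array and then averaged across arrays of one protein sequence at different concentrations or buffers and across linkers. Arrays, 3228 in all, were curated from the Consortium for Functional Glycomics database and kept only where the protein sequence was available.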
# [2] = target: Gal(b1-3)GlcNAc(b1-6)[Gal(b1-3)]GalNAc
# Procedure, shortened: as §1
# Gal(b1-3)GlcNAc6S = target: Gal(b1-3)GlcNAc6S
# Procedure, shortened: as §1
# [3] = target: Gal(b1-3)[Fuc(a1-4)]GlcNAc
# Procedure, shortened: as §1
# [4] = target: Gal(b1-3)[Fuc(a1-4)]GlcNAc(b1-2)Man
# Procedure, shortened: as §1
# [5] = target: Gal(b1-3)[Fuc(a1-4)]GlcNAc(b1-2)Man(a1-3)[Gal(b1-3)[Fuc(a1-4)]GlcNAc(b1-2)Man(a1-6)]Man(b1-4)GlcNAc(b1-4)[Fuc(a1-6)]GlcNAc
# Procedure, shortened: as §1
# [6] = target: Gal(b1-3)[Fuc(a1-4)]GlcNAc(b1-3)Gal(b1-3)[Fuc(a1-4)]GlcNAc
# Procedure, shortened: as §1
# [7] = target: Gal(b1-3)[Fuc(a1-4)]GlcNAc(b1-3)Gal(b1-4)[Fuc(a1-3)]GlcNAc
# Procedure, shortened: as §1
# [8] = target: Gal(b1-3)[Fuc(a1-4)]GlcNAc(b1-6)GalNAc
# Procedure, shortened: as §1
# [9] = target: Gal(b1-3)[GlcNAc(b1-6)]GalNAc
# Procedure, shortened: as §1
# [10] = target: Gal(b1-3)[Neu5Ac(a2-6)]GalNAc
# Procedure, shortened: as §1
# [11] = target: Gal(b1-3)[Neu5Ac(a2-6)]GlcNAc(b1-4)Gal(b1-4)Glc
# Procedure, shortened: as §1
# [12] = target: Gal(b1-3)[Neu5Ac(b2-6)]GalNAc
# Procedure, shortened: as §1
# Gal(b1-4)Gal = target: Gal(b1-4)Gal
# Procedure, shortened: as §1
# [13] = target: Gal(b1-4)GalNAc(a1-3)[Fuc(a1-2)]Gal(b1-4)GlcNAc
# Procedure, shortened: as §1
# [14] = target: Gal(b1-4)GalNAc(b1-3)[Fuc(a1-2)]Gal(b1-4)GlcNAc
# Procedure, shortened: as §1
# Gal(b1-4)Glc = target: Gal(b1-4)Glc
# Procedure, shortened: as §1
# Gal(b1-4)Glc6S = target: Gal(b1-4)Glc6S
# Procedure, shortened: as §1
# Gal(b1-4)GlcNAc = target: Gal(b1-4)GlcNAc
# Procedure, shortened: as §1
# [15] = target: Gal(b1-4)GlcNAc(a1-6)Gal(b1-4)GlcNAc
# Procedure, shortened: as §1
# Gal(b1-4)GlcNAc(b1-2)Man = target: Gal(b1-4)GlcNAc(b1-2)Man
# Procedure, shortened: as §1
# [16] = target: Gal(b1-4)GlcNAc(b1-2)Man(a1-3)Man(b1-4)GlcNAc(b1-4)GlcNAc
# Procedure, shortened: as §1
# [17] = target: Gal(b1-4)GlcNAc(b1-2)Man(a1-3)[Gal(b1-4)GlcNAc(b1-2)Man(a1-6)]Man(b1-4)GlcNAc(b1-4)GlcNAc
# Procedure, shortened: as §1
# [18] = target: Gal(b1-4)GlcNAc(b1-2)Man(a1-3)[Gal(b1-4)GlcNAc(b1-2)Man(a1-6)]Man(b1-4)GlcNAc(b1-4)[Fuc(a1-6)]GlcNAc
# Procedure, shortened: as §1
# [19] = target: Gal(b1-4)GlcNAc(b1-2)Man(a1-3)[Gal(b1-4)GlcNAc(b1-2)Man(a1-6)][Gal(b1-4)GlcNAc(b1-4)]Man(b1-4)GlcNAc(b1-4)[Fuc(a1-6)]GlcNAc
# Procedure, shortened: as §1
# [20] = target: Gal(b1-4)GlcNAc(b1-2)Man(a1-3)[Gal(b1-4)GlcNAc(b1-2)Man(a1-6)][GlcNAc(b1-4)]Man(b1-4)GlcNAc(b1-4)[Fuc(a1-6)]GlcNAc
# Procedure, shortened: as §1
# [21] = target: Gal(b1-4)GlcNAc(b1-2)Man(a1-3)[GlcNAc(b1-2)Man(a1-6)]Man(b1-4)GlcNAc(b1-4)GlcNAc
# Procedure, shortened: as §1
# [22] = target: Gal(b1-4)GlcNAc(b1-2)Man(a1-3)[GlcNAc(b1-4)][Gal(b1-4)GlcNAc(b1-2)Man(a1-6)]Man(b1-4)GlcNAc(b1-4)GlcNAc
# Procedure, shortened: as §1
# [23] = target: Gal(b1-4)GlcNAc(b1-2)Man(a1-3)[Man(a1-6)]Man(b1-4)GlcNAc(b1-4)GlcNAc
# Procedure, shortened: as §1
# [24] = target: Gal(b1-4)GlcNAc(b1-2)Man(a1-6)Man(b1-4)GlcNAc(b1-4)GlcNAc
# Procedure, shortened: as §1
# [25] = target: Gal(b1-4)GlcNAc(b1-2)Man(a1-6)[GlcNAc(b1-2)Man(a1-3)]Man(b1-4)GlcNAc(b1-4)GlcNAc
# Procedure, shortened: as §1
# [26] = target: Gal(b1-4)GlcNAc(b1-2)Man(a1-6)[Man(a1-3)]Man(b1-4)GlcNAc(b1-4)GlcNAc
# Procedure, shortened: as §1
# [27] = target: Gal(b1-4)GlcNAc(b1-2)[Gal(b1-4)GlcNAc(b1-4)]Man(a1-3)[Gal(b1-4)GlcNAc(b1-2)Man(a1-6)]Man(b1-4)GlcNAc(b1-4)GlcNAc
# Procedure, shortened: as §1
# [28] = target: Gal(b1-4)GlcNAc(b1-2)[Gal(b1-4)GlcNAc(b1-4)]Man(a1-3)[Gal(b1-4)GlcNAc(b1-2)[Gal(b1-4)GlcNAc(b1-6)]Man(a1-6)]Man(b1-4)GlcNAc(b1-4)GlcNAc
# Procedure, shortened: as §1
# [29] = target: Gal(b1-4)GlcNAc(b1-2)[Gal(b1-4)GlcNAc(b1-4)]Man(a1-3)[GlcNAc(b1-4)][Gal(b1-4)GlcNAc(b1-2)Man(a1-6)]Man(b1-4)GlcNAc(b1-4)GlcNAc
# Procedure, shortened: as §1
# [30] = target: Gal(b1-4)GlcNAc(b1-2)[Gal(b1-4)GlcNAc(b1-4)]Man(a1-3)[GlcNAc(b1-4)][Gal(b1-4)GlcNAc(b1-2)[Gal(b1-4)GlcNAc(b1-6)]Man(a1-6)]Man(b1-4)GlcNAc(b1-4)GlcNAc
# Procedure, shortened: as §1
# [31] = target: Gal(b1-4)GlcNAc(b1-2)[Gal(b1-4)GlcNAc(b1-6)]Man(a1-6)[Gal(b1-4)GlcNAc(b1-2)Man(a1-3)]Man(b1-4)GlcNAc(b1-4)GlcNAc
# Procedure, shortened: as §1
binder,measurement,setting,value
B1,glycan array binding signal (z-score),[1],3.77
same,glycan array binding signal (z-score),[2],-0.187
same,glycan array binding signal (z-score),Gal(b1-3)GlcNAc6S,-0.332
same,glycan array binding signal (z-score),[3],-0.336
same,glycan array binding signal (z-score),[4],-0.077
same,glycan array binding signal (z-score),[5],-0.192
same,glycan array binding signal (z-score),[6],-0.317
same,glycan array binding signal (z-score),[7],-0.296
same,glycan array binding signal (z-score),[8],2.4
same,glycan array binding signal (z-score),[9],-0.11
same,glycan array binding signal (z-score),[10],-0.34
same,glycan array binding signal (z-score),[11],-0.315
same,glycan array binding signal (z-score),[12],-0.29
same,glycan array binding signal (z-score),Gal(b1-4)Gal,-0.329
same,glycan array binding signal (z-score),[13],-0.34
same,glycan array binding signal (z-score),[14],-0.3
same,glycan array binding signal (z-score),Gal(b1-4)Glc,-0.295
same,glycan array binding signal (z-score),Gal(b1-4)Glc6S,-0.348
same,glycan array binding signal (z-score),Gal(b1-4)GlcNAc,-0.336
same,glycan array binding signal (z-score),[15],0.022
same,glycan array binding signal (z-score),Gal(b1-4)GlcNAc(b1-2)Man,0.195
same,glycan array binding signal (z-score),[16],-0.355
same,glycan array binding signal (z-score),[17],-0.239
same,glycan array binding signal (z-score),[18],-0.331
same,glycan array binding signal (z-score),[19],-0.272
same,glycan array binding signal (z-score),[20],-0.3
same,glycan array binding signal (z-score),[21],-0.317
same,glycan array binding signal (z-score),[22],-0.307
same,glycan array binding signal (z-score),[23],-0.231
same,glycan array binding signal (z-score),[24],-0.317
same,glycan array binding signal (z-score),[25],-0.368
same,glycan array binding signal (z-score),[26],-0.297
same,glycan array binding signal (z-score),[27],-0.311
same,glycan array binding signal (z-score),[28],-0.293
same,glycan array binding signal (z-score),[29],-0.291
same,glycan array binding signal (z-score),[30],-0.351
same,glycan array binding signal (z-score),[31],-0.316
